Experimental data as given in PubChem BioAssay AID624296 (National Center for Advancing Translational Sciences (NCATS), 2012).
About 9,900 (2.8%) of roughly 350,000 compounds were called active. Inconclusive means that the source gave no clear call. Such entries were picked first, then a sample of the others. Calls come from the whole dose curve; as a rule, active = well fitted activation curve with a large enough effect; inconclusive = small, poorly fitted or top-dose-only effect; inactive = no such curve, though single readings can be large or run the other way. No potency is given beside an inconclusive call; the fits are too rough.

Assay: A quantitative high throughput screen for small molecules that induce DNA re-replication in MCF 10a normal breast cells. For activity, positive = re-replication: % of control where 0% means no effect. Note: nearly all actives have a fitted effect of over 50% in size.
Conditions: MCF 10A DNA re-replication, Hoechst nuclear intensity, 48 h; activity, positive = re-replication: at 46.1 µM (top of the series)
Potency is the fitted concentration of half-maximal effect; tags give direction and shape of the fitted curve.

Compound	Potency	activity, positive = re-replication
Cc1ccc(-c2cn3nc(-c4ccccc4)c(-c4ccccc4)nc3n2)cc1	inconclusive [activator, single point]	
Cn1ccc2cc3c(cc21)CCN3C(=O)Nc1cccnc1	inactive	
CCN(CC)c1ccc(/C=N/NC(=O)CCC(=O)NCc2ccccc2)c(O)c1	inconclusive [activator, single point]	
OCCC1CN(CC#Cc2ccccc2)CCN1C1CCCC1 (stereo not given)	inconclusive [activator, single point]	
Cc1cccc(-n2c(C)cc(/C=N/NC(=O)c3cccc([N+](=O)[O-])c3C)c2C)c1	inconclusive [activator, partial curve]	
CCN(C#N)c1nc(NC(C)C)nc(NC(C)C)n1		inactive: 21.9%
CCOC(=O)C1(CCOc2ccccc2)CCN(Cc2cccc(OC)c2)CC1	inconclusive [activator, partial curve, poor fit]	
CCSc1nnc(NC(=O)c2cc(OC)c(OC)c(OC)c2)s1		inactive: 19.4%
CCOc1cc(/C=N/NC(=O)c2ccccc2-n2cccc2)ccc1O	inconclusive [activator, single point]	
c1ccc(-c2noc(-c3ccc4c(c3)OCO4)n2)nc1	inconclusive [activator, full curve, poor fit]	
Cc1ccc(C)c(CN2CCC(CNC(=O)Nc3ccc(Br)cc3F)CC2)c1	inconclusive [activator, single point]	
Cc1ccc(C)n1N1C(=O)/C(=C\c2ccc(Cl)cc2)SC1=S	inconclusive [activator, full curve, poor fit]	
O=C(O)CSc1nnc(C2COc3ccccc3O2)n1-c1ccccc1 (stereo not given)		inactive: -0.145%
O=C1CCC(C(=O)NCc2cccnc2)N1 (stereo not given)	inconclusive [activator, partial curve, poor fit]	
CC1CCCCN1CCNC(=O)c1ccc2c(c1)N(Cc1cccc(Cl)c1)C(=O)c1ccccc1S2=O (stereo not given)	inconclusive [activator, partial curve]	
Clc1cccc(-c2nc(-c3ccc(-c4nn[nH]n4)cc3)no2)c1		inactive: -4.99%
O=C(CC(SCCO)c1ccc2c(c1)OCO2)c1ccco1 (stereo not given)	inconclusive [activator, single point]	
CC1(C)CC(=O)C2=C(C1)OC(N)=C(C#N)C2c1ccoc1 (stereo not given)		inactive: 0.201%
CN(C)CCCn1c2c(c(SCC(=O)Nc3cccc4ccccc34)nc1=O)CCCC2		inactive: 7.25%
CC(SC1=NCCS1)C(=O)Nc1nnc(-c2ccc(Cl)cc2)s1 (stereo not given)	inconclusive [activator, single point]	
Cc1cccc(Nc2nnc(-c3ccc(C(=O)N4C[C@H]5C[C@H](C4)c4cccc(=O)n4C5)cc3)c3ccccc23)c1	inconclusive [activator, single point]	
Cn1c(=O)c2[nH]c(CCCCCCCCc3nc4ccccc4[nH]3)nc2n(C)c1=O	inconclusive [activator, partial curve, poor fit]	
Cc1nc2cc(C(F)(F)F)ccc2n1CCNc1nc(-c2cc(Cl)c(N)c(Cl)c2)cs1	active: 23.1 µM	
c1ccc(-c2onc(-c3ccco3)c2-c2ccc3[nH]ccc3c2)cc1	inconclusive [activator, single point]	

Compound	Potency	activity, positive = re-replication
Cc1ccc(C(=O)NN=CC(=O)c2ccccc2)c(C)c1		inactive: -0.885%
CCNC(=O)/C(C#N)=C/c1c(N2CCN(Cc3ccc4c(c3)OCO4)CC2)nc2c(C)cccn2c1=O		inactive: -3.31%
O=[N+]([O-])c1ccc2nc(-[n+]3c(-c4ccccc4)cc(-c4ccccc4)cc3-c3ccccc3)[nH]c2c1	inconclusive [activator, partial curve, poor fit]	
CNC(=S)NC1CC2CCCC(C1)N2Cc1ccc(C)cc1 (stereo not given)	inconclusive [activator, single point]	
Cc1cc(C)c2c(N)c3cccc(C)c3nc2n1	active: 20.6 µM	
O=C(C1CCCO1)N1CCN(C(=S)Nc2cccc(Cl)c2)CC1 (stereo not given)	inconclusive [activator, single point]	
COc1ccc(O)c(CN2CCCC(N3CCN(c4ccc(F)cc4)CC3)C2)c1 (stereo not given)	inconclusive [activator, single point]	
N/C(=N\OC(=O)c1ccc2ccccc2c1)c1ccccn1		inactive: 2.03%
O=C(NCc1ccco1)/C(=C/C=C\c1ccccc1)NC(=O)c1ccc(Br)o1	inconclusive [activator, partial curve, poor fit]	
O=C(CCCc1nc2ccccc2s1)NCc1ccccc1		inactive: 1.35%
COc1cc(NC(=O)COc2ccc(-n3cnnn3)cc2)cc(OC)c1OC		inactive: 4.06%
CC(C)C[C@H](NC(=O)c1nc[nH]c1C(=O)N[C@@H](CCCCN)C(=O)OC(C)(C)C)C(=O)OC(C)(C)C	inconclusive [activator, full curve, poor fit]	
O=C(c1c(F)cccc1F)N1CCCC(c2nc(-c3ccc(Cl)cc3)no2)C1 (stereo not given)	inconclusive [activator, partial curve, poor fit]	
C=CC[C@]12CCc3sccc3C1N(c1ccc(C(=O)OCC)cc1)C2=O (stereo not given in full)		inactive: 27.9%
COc1ccc(/C=C(/NC(=O)c2ccccc2)c2nc3ccccc3[nH]2)cc1OC	active: 20.6 µM	
O=c1oc2c(O)cccc2cc1-c1nc2ccccc2[nH]1	inconclusive [activator, full curve, poor fit]	
O=C(C[n+]1ccccc1)Nc1ccccc1C(F)(F)F	active: 3.26 µM	
CCOC(=O)c1c(C)c(C(=O)Nc2ccc3c(c2)OCCO3)c(C)n1C	inconclusive [activator, single point]	
CC1CC(C)CN(C(=O)CSc2ncnc3sccc23)C1 (stereo not given)		inactive: 11.7%
CCOc1ccc(CCNC(=O)CCCn2c(=O)c3cccn3c3cccnc32)cc1OCC	inconclusive [activator, single point]	
COc1ccc(C(=O)N2C(=O)c3ccc(N)cc3C2=O)cc1	inconclusive [activator, partial curve, poor fit]	
CC(C)CNC(=O)CCc1c[nH]c2ccccc12	inconclusive [activator, full curve, poor fit]	
CCCCC(Sc1nc(N)c(NC(=O)c2ccc(OCC)cc2)c(=O)[nH]1)C(=O)O (stereo not given)	inconclusive [activator, single point]	
CC(=O)c1sc(NC(=O)COc2ccc([N+](=O)[O-])cc2)nc1C	inconclusive [activator, single point]	

Compound	Potency	activity, positive = re-replication
COc1ccc(C(CNC(=O)c2cccc(NS(=O)(=O)c3ccccc3)c2)N(C)C)cc1 (stereo not given)		inactive: 7.39%
COc1cccc(NC(=O)Nc2nnc(Cc3ccccc3)s2)c1	inconclusive [activator, single point]	
CCSc1nsc(NC(=O)Nc2cccc(F)c2)n1	active: 16.4 µM	
C/C(Cl)=C\Cn1c(O)c(N=NC(N)=S)c2cc(Br)ccc21	inconclusive [activator, partial curve, poor fit]	
COc1ccccc1CC(=O)Nc1cccc(C)n1		inactive: -0.223%
CC(C(=O)Nc1ccccc1)N(C)CCOc1ccc(Br)cc1 (stereo not given)	inconclusive [activator, single point]	
Cc1ccc(COC(=O)CN2C(=O)NC3(CCCCC3C)C2=O)cc1 (stereo not given)		inactive: 27.9%
CCCCNS(=O)(=O)c1ccc2nc(-c3cccs3)cc(C(=O)NCC(OC)OC)c2c1		inactive: -19.6%
CC(=O)c1sc(N/N=C\c2ccc(C)cc2)nc1C	inconclusive [activator, partial curve]	
CCCN(C(=O)c1cccc(S(=O)(=O)N2CCCc3ccccc32)c1)C1CCS(=O)(=O)C1 (stereo not given)		inactive: 14.1%
CN1CC(c2ccccc2)C(c2ccc(Cl)cc2)=N1 (stereo not given)		inactive: -0.0068%
CCc1ccc(C(=O)COC(=O)C(Cc2ccccc2)NC(=O)C2CCC(C)CC2)cc1 (stereo not given)	inconclusive [activator, single point]	
Cc1cccc(N=Nc2c(C)nn(-c3ccccc3)c2N)c1C	inconclusive [activator, single point]	
CCOC(=O)c1c(S(=O)(=O)NCCc2ccc(OC)c(OC)c2)c(C)n(C)c1C		inactive: 2.15%
COc1ccc(C(=O)N/C(=C\c2cn(S(=O)(=O)N(C)C)c3ccccc23)C(=O)N2CCOCC2)cc1		inactive: 0.703%
C=CCSc1nnc(N2C(=O)C(O)=C(C(=O)c3ccco3)C2c2ccccc2F)s1 (stereo not given)	inconclusive [activator, full curve, poor fit]	
Cc1ccc(NC(=O)c2cc(=O)c3ccccc3o2)cc1	inconclusive [activator, partial curve, poor fit]	
Cc1oncc1-c1cn2ccccc2n1	inconclusive [activator, partial curve, poor fit]	
Cc1ccc(NC(=O)CSc2nc3ccccc3c3nc4ccccc4n23)cc1	active: 1.46 µM	
Nc1nc(SCC(=O)NNc2c(Cl)cc(Cl)cc2Cl)n[nH]1		inconclusive: 42.1% [activator]
O=c1oc2ccc(Cl)cc2cc1-c1nnc(Nc2cccc(C(F)(F)F)c2)s1	inconclusive [activator, full curve, poor fit]	
Cn1c(NCCCN2CCOCC2)nc2c1c(=O)n(Cc1ccc(Cl)c(Cl)c1)c(=O)n2C	inconclusive [activator, single point]	
